# Results taken from PubChem BioAssay AID504832 (National Center for Advancing Translational Sciences (NCATS), 2011).
# Hit rate of the full screen: of about 310,000 compounds, about 18,000 (5.8%) were called active. This list was built around the results that the source calls inconclusive (neither active nor inactive); the mix of calls is not that of the screen. Calls come from the whole dose curve; as a rule, active = well fitted inhibition curve with a large enough effect; inconclusive = small, poorly fitted or top-dose-only effect, or another doubt; inactive = no such curve, though single readings can be large or run the other way. Potencies of inconclusive entries are left out as doubtful fits.
# Experiment: Primary qHTS for delayed death inhibitors of the malarial parasite plastid, 48 hour incubation
# Conditions: P. falciparum luciferase growth in erythrocytes; series mostly up to 28.7 µM; activity change, negative = inhibition: at the top concentration
# Method in brief: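 A one-generation exposure of luciferase-tagged malaria parasites in RPMI 1640/Albumax erythrocyte culture, 37 C and 5% CO2. Inhibition is inferred from decreased luminescence after adding detection reagent.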
# % is set by controls: 0 for no effect and ±100 for the full control effect; potency is the fitted concentration of half-maximal effect; tags give direction and shape of the fitted curve.
SMILES,Potency,"activity change, negative = inhibition"
CCN(CC)S(=O)(=O)c1ccc(N2CC(C(=O)NCc3ccc4c(c3)OCO4)CC2=O)cc1 (centres undefined),"inconclusive [inhibitor, partial curve]",
CCCNC(=S)Nc1ccc(Cl)cc1Cl,,inactive: 23.3%
Cc1nnc(NCc2cccc(Cl)c2)c2ccccc12,"inconclusive [inhibitor, single point]",
Cc1ccc(C(C(=O)NCc2ccco2)N(C(=O)Cn2nnc3ccccc32)c2ccccc2)o1 (centres undefined),"inconclusive [inhibitor, single point]",
CCC(C(=O)Nc1nc(C)c(C(=O)OC)s1)c1ccccc1 (centres undefined),"inconclusive [inhibitor, single point]",
CC(=O)O[C@@H]1[C@H]2[C@@H](C[C@@H](C)[C@@H]3C=CC(=O)[C@@]13C)OC(=O)[C@@H]2C,"inconclusive [inhibitor, single point]",
CC(=O)N1CCN(c2ccc(NC(=O)c3ccc(Br)o3)cc2Cl)CC1,"inconclusive [inhibitor, partial curve]",
CC(C)(C)NCC(O)c1cc(Cl)c(N)c(C(F)(F)F)c1 (centres undefined),active: 13.5 µM,
CN(C)CCCN(C(=O)COc1ccccc1)c1nc2cc3c(cc2s1)OCCO3,,inactive: 53.8%
O=C(CCC1CCCN(C(=O)c2cncs2)C1)NCc1ccc(F)c(F)c1 (centres undefined),,inactive: 46%
COc1cccc(C(=O)COc2cccc(NC(=O)c3ccco3)c2)c1,,inactive: 0%
CCOC(=O)C(Cc1ccccc1)C(=O)Nc1ccc(NC(=O)C(Cc2ccccc2)C(=O)OCC)cc1 (centres undefined),,inactive: 9.57%
O=C(N/N=C/c1ccc(-c2cccc([N+](=O)[O-])c2)o1)c1ccc([N+](=O)[O-])cc1,"inconclusive [inhibitor, single point]",
COc1cc(/C=N/NC(=O)COc2c(C)cc([N+](=O)[O-])cc2C)ccc1OC(=O)c1ccccc1,"inconclusive [inhibitor, single point]",
N/C(=N\OC(=O)c1ccncc1)c1cccc([N+](=O)[O-])c1,,inactive: 72.2%
COc1ccccc1-n1c(SCC(=O)NC2CCCC2)nc2cccnc21,"inconclusive [inhibitor, partial curve]",
Cc1ccc(CN(Cc2cccnc2)C(=S)Nc2cccc(Cl)c2C)cc1,"inconclusive [inhibitor, partial curve, poor fit]",
Cc1nc(-c2cccnc2)sc1C(=O)Nc1ccc(C(F)(F)F)cc1,"inconclusive [inhibitor, single point]",
CCCN[C@@H]1C(=O)N2C(C(=O)OCCC)=C(C)CS[C@H]12,,inactive: 21.8%
COc1ccc(C(c2nnnn2Cc2cccs2)N2CCN(c3ccc(F)cc3)CC2)cc1OC (centres undefined),active: 5.86 µM,
O=C(COC(=O)CN1C(=O)c2ccccc2C1=O)Nc1ccccc1[N+](=O)[O-],,inactive: 4.61%
COc1cccc2cc(C(C)N(CCCN3CCOCC3)C(=S)Nc3cc(C)ccc3C)oc12 (centres undefined),"inconclusive [inhibitor, partial curve, poor fit]",
O=C(Nc1ccc(Cl)cc1)N1CCN(c2ncccn2)CC1,"inconclusive [inhibitor, partial curve, poor fit]",

SMILES,Potency,"activity change, negative = inhibition"
CC(C)C[C@@]12C(=O)N(c3cccc(F)c3)C(=O)N1[C@H](c1ccc(Br)cc1)[C@@H]1C(=O)N(C(C)(C)C)C(=O)[C@@H]12,active: 13.1 µM,
COc1ccc(C(=O)NC(=S)NNC(=O)c2ccc3ccccc3n2)cc1,"inconclusive [inhibitor, single point]",
CCOc1ccc2oc(C(=O)NN3C(C)CCCC3C)c(C)c2c1 (centres undefined),"inconclusive [inhibitor, single point]",
COc1cccc(C(=O)NC(=S)Nc2ccc(N3CCCC3)cc2)c1,"inconclusive [inhibitor, partial curve]",
O=C1CCCN1CCC(=O)N1CCCC(N2CCN(c3ccccc3F)CC2)C1 (centres undefined),,inactive: -0.177%
COc1ccc(CNC(=O)C(=O)NCCC2CCCCN2S(=O)(=O)c2ccc(C)cc2)cc1 (centres undefined),"inconclusive [inhibitor, partial curve]",
CCn1cc(CNC(=O)C2CCC(=O)N(C3CCCCCC3)C2)cn1 (centres undefined),,inactive: 4.96%
Cc1ccc(C(=O)N/N=C/C2=Cc3ccccc3OC2C)cc1 (centres undefined),"inconclusive [inhibitor, single point]",
Cc1ccc(-n2cccc2/C=C2\C(=N)N3N=C(C(C)C)SC3=NC2=O)cc1,"inconclusive [inhibitor, partial curve, poor fit]",
O=C(c1ccco1)N1CCN(C(=O)c2ccccc2OCc2ccc(Cl)cc2)CC1,"inconclusive [inhibitor, single point]",
CCc1ccc(/C=C(/C#N)C(N)=S)cc1,"inconclusive [inhibitor, partial curve]",
Cn1c(NCCCN2CCOCC2)nc2c1c(=O)n(Cc1ccc(Cl)cc1Cl)c(=O)n2C,"inconclusive [inhibitor, partial curve]",
CCOC(=O)C1=C(C)N=c2s/c(=C\c3cccn3C)c(=O)n2C1c1cccc(OC)c1OC (centres undefined),active: 2.08 µM,
CC(=O)Nc1cc(NC(C)=O)ncn1,"inconclusive [inhibitor, single point]",
Cc1cc(=O)n2c(n1)NC(Nc1cccc(C)c1C)=NC2c1ccc(F)cc1 (centres undefined),"inconclusive [inhibitor, single point]",
Cc1cccc(NC(=S)NNC(=O)CCn2cc(C)cn2)c1,,inactive: 2.3%
CCOC(=O)C1CCN(C(=O)CCNS(=O)(=O)c2ccc3c(c2)CCN3C(=O)CC)CC1,"inconclusive [inhibitor, partial curve, poor fit]",
Cc1nc(-c2ccccc2)sc1C(=O)CSc1ccccc1,,inactive: 5.43%
C/C(=N/NC(=O)CC(=O)N/N=C(\C)c1ccc([N+](=O)[O-])cc1)c1ccc([N+](=O)[O-])cc1,"inconclusive [inhibitor, single point]",
O=C(Nc1ncc2c(n1)-c1ccccc1CC2)C1CC1,"inconclusive [inhibitor, single point]",
CNC(=S)N/N=C/c1ccccc1Cl,,inactive: 33.4%
COc1ccc(C2C(O)C(c3c[nH]c4ccccc34)=NN2C(=O)CCl)cc1 (centres undefined),active: 2.94 µM,
Cc1nc(Nc2ccccc2Cl)sc1C(=O)Nc1ccccc1,,inactive: -11.8%

SMILES,Potency,"activity change, negative = inhibition"
CCCCCC(O)(c1ccccc1)C(CN1CCOCC1)c1ccccc1 (centres undefined),active: 2.62 µM,
O=C1Cc2ccccc2C(=O)N1c1cccc(Cl)c1,,inactive: -5.71%
O=C(c1ccccc1)c1nc[nH]c1C(=O)Nc1ccccc1,"inconclusive [inhibitor, single point]",
CC1=C(C(=O)c2ccccc2)C(c2ccc(O)cc2)NC(=S)N1 (centres undefined),"inconclusive [inhibitor, full curve, poor fit]",
COc1cc(NC(=O)CCc2nc(-c3cccs3)no2)cc(OC)c1OC,,inactive: 1.9%
COc1ccc(NC2CCCN(C(=O)c3ccc4[nH]c(C)c(C)c4c3)C2)cc1 (centres undefined),"inconclusive [inhibitor, partial curve]",
COc1ccc(S(=O)(=O)N2CCCCCC2)cc1C(=O)N(C)CC(=O)Nc1ccccc1Br,"inconclusive [inhibitor, single point]",
CCOc1ccc(S(=O)(=O)N2CCC(C(=O)N3CCN(c4ccccc4)CC3)CC2)cc1,"inconclusive [inhibitor, partial curve]",
CCOC(=O)c1ccc(NC(=O)C2(c3ccccc3)CCOCC2)cc1,"inconclusive [inhibitor, partial curve, poor fit]",
Clc1cc(Cl)cc(Nc2ncnc(-n3cccc3)n2)c1,"inconclusive [inhibitor, single point]",
Cn1c2ccc(Br)cc2c2nnc(SCC(=O)O)nc21,,inactive: -3.22%
COc1ccc(CNc2oc(-c3cccc4ccccc34)nc2P(=O)(OC)OC)cc1,"inconclusive [inhibitor, partial curve, poor fit]",
O=C(CSc1nnc(COc2ccc(Cl)cc2)o1)NC1CCCCC1,,inactive: 6.25%
CCCCc1ccc(N=N/C(C(=O)Nc2cc(OC)c(NC(C)=O)cc2OC)=C(/C)O)cc1,"inconclusive [inhibitor, single point]",
CCC(C)n1nccc1NC(=O)C(C)OC(=O)c1cc2ccccc2[nH]1 (centres undefined),"inconclusive [inhibitor, single point]",
CCOc1ccc([C@@H]2CC=C(C(=O)O)[C@H](c3cccc(Cl)c3)N2S(=O)(=O)c2ccc(C)cc2)cc1,"inconclusive [inhibitor, single point]",
COCCCNC(=S)NCCCNc1nc2cc3c(cc2cc1C#N)OCO3,"inconclusive [inhibitor, single point]",
C[n+]1cccc(O)c1SCc1ccccc1,"inconclusive [inhibitor, partial curve, poor fit]",
Cn1c(=O)c2c(O)c([N+](=O)[O-])c(=O)n(C)c2n(C)c1=O,,inactive: 7.05%
COc1ccc2[nH]c(=O)c(CN(CCO)C(=O)c3cccs3)cc2c1,,inactive: 0.31%
c1cncc(CSc2ccc(-c3ccc4c(c3)OCO4)nn2)c1,,inactive: 336%
Cc1cc(NC(=O)CCN2C(=O)C3C4C=CC(C4)C3C2=O)c2ccccc2n1 (centres undefined),"inconclusive [inhibitor, full curve, poor fit]",
O=C(COc1ccc2ccccc2c1)N1c2ccccc2Sc2ccccc21,"inconclusive [inhibitor, single point]",
